# The list shows a part of the results.
# Experiments:
# Assay in all cases: glycan array binding signal (z-score within array); higher = stronger binding
# Details in all cases: glycan notation: IUPAC condensed, linker removed
# [1] = biological target: Gal(b1-4)GlcNAc(b1-2)[Gal(b1-4)GlcNAc(b1-4)]Man(a1-3)[Gal(b1-4)GlcNAc(b1-2)[Gal(b1-4)GlcNAc(b1-6)]Man(a1-6)]Man(b1-4)GlcNAc(b1-4)GlcNAc
# Method in brief: (§1)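 Negative Z-scores can be read as non-binding. The Z-score is calculated within each array and then averaged across arrays of one protein sequence at different concentrations or buffers and across linkers. Arrays, 3228 in all, were curated from the Consortium for Functional Glycomics database and kept only where the protein sequence was available.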
# [2] = biological target: Gal(b1-4)GlcNAc(b1-2)[Gal(b1-4)GlcNAc(b1-4)]Man(a1-3)[GlcNAc(b1-4)][Gal(b1-4)GlcNAc(b1-2)Man(a1-6)]Man(b1-4)GlcNAc(b1-4)GlcNAc
# Method in brief: as §1
# [3] = biological target: Gal(b1-4)GlcNAc(b1-2)[Gal(b1-4)GlcNAc(b1-6)]Man(a1-6)[GlcNAc(b1-4)][Gal(b1-4)GlcNAc(b1-2)Man(a1-3)]Man(b1-4)GlcNAc(b1-4)GlcNAc
# Method in brief: as §1
# [4] = biological target: Gal(b1-4)GlcNAc(b1-3)Gal(b1-3)GlcNAc
# Method in brief: as §1
# [5] = biological target: Gal(b1-4)GlcNAc(b1-3)Gal(b1-4)Glc
# Method in brief: as §1
# [6] = biological target: Gal(b1-4)GlcNAc(b1-3)Gal(b1-4)GlcNAc
# Method in brief: as §1
# [7] = biological target: Gal(b1-4)GlcNAc(b1-3)Gal(b1-4)GlcNAc(b1-3)Gal(b1-4)GlcNAc
# Method in brief: as §1
# [8] = biological target: Gal(b1-4)GlcNAc(b1-3)Gal(b1-4)[Fuc(a1-3)GlcNAc(b1-6)]Gal(b1-4)Glc
# Method in brief: as §1
# [9] = biological target: Gal(b1-4)GlcNAc(b1-3)Gal(b1-4)[Fuc(a1-3)]GlcNAc(b1-3)Gal(b1-4)[Fuc(a1-3)]GlcNAc
# Method in brief: as §1
# [10] = biological target: Gal(b1-4)GlcNAc(b1-3)GalNAc
# Method in brief: as §1
# [11] = biological target: Gal(b1-4)GlcNAc(b1-3)[Gal(b1-4)GlcNAc(b1-6)]Gal(b1-4)GlcNAc
# Method in brief: as §1
# [12] = biological target: Gal(b1-4)GlcNAc(b1-3)[Gal(b1-4)GlcNAc(b1-6)]GalNAc
# Method in brief: as §1
# [13] = biological target: Gal(b1-4)GlcNAc(b1-3)[GlcNAc(b1-6)]Gal(b1-4)GlcNAc
# Method in brief: as §1
# [14] = biological target: Gal(b1-4)GlcNAc(b1-6)Gal(b1-4)GlcNAc
# Method in brief: as §1
# [15] = biological target: Gal(b1-4)GlcNAc(b1-6)GalNAc
# Method in brief: as §1
# [16] = biological target: Gal(b1-4)GlcNAc(b1-6)[Gal(b1-3)]GalNAc
# Method in brief: as §1
# Gal(b1-6)Gal = biological target: Gal(b1-6)Gal
# Method in brief: as §1
# Gal3S(b1-3)GalNAc = biological target: Gal3S(b1-3)GalNAc
# Method in brief: as §1
# Gal3S(b1-3)GlcNAc = biological target: Gal3S(b1-3)GlcNAc
# Method in brief: as §1
# [17] = biological target: Gal3S(b1-3)[Fuc(a1-4)]GlcNAc
# Method in brief: as §1
# Gal3S(b1-4)Glc = biological target: Gal3S(b1-4)Glc
# Method in brief: as §1
# Gal3S(b1-4)Glc6S = biological target: Gal3S(b1-4)Glc6S
# Method in brief: as §1
# Gal3S(b1-4)GlcNAc = biological target: Gal3S(b1-4)GlcNAc
# Method in brief: as §1
# Gal3S(b1-4)GlcNAc6S = biological target: Gal3S(b1-4)GlcNAc6S
# Method in brief: as §1
# [18] = biological target: Gal3S(b1-4)[Fuc(a1-3)]Glc
# Method in brief: as §1
# [19] = biological target: Gal3S(b1-4)[Fuc(a1-3)]Glc6S
# Method in brief: as §1
# Gal3S4S(b1-4)GlcNAc = biological target: Gal3S4S(b1-4)GlcNAc
# Method in brief: as §1
# Gal3S6S(b1-4)GlcNAc = biological target: Gal3S6S(b1-4)GlcNAc
# Method in brief: as §1
# Gal3S6S(b1-4)GlcNAc6S = biological target: Gal3S6S(b1-4)GlcNAc6S
# Method in brief: as §1
# Gal4S(b1-4)GlcNAc = biological target: Gal4S(b1-4)GlcNAc
# Method in brief: as §1
# Gal4S6S(b1-4)GlcNAc = biological target: Gal4S6S(b1-4)GlcNAc
# Method in brief: as §1
# Gal6S(b1-3)GlcNAc = biological target: Gal6S(b1-3)GlcNAc
# Method in brief: as §1
# Gal6S(b1-3)GlcNAc6S = biological target: Gal6S(b1-3)GlcNAc6S
# Method in brief: as §1
# Gal6S(b1-4)Glc = biological target: Gal6S(b1-4)Glc
# Method in brief: as §1
# Gal6S(b1-4)Glc6S = biological target: Gal6S(b1-4)Glc6S
# Method in brief: as §1
# Gal6S(b1-4)GlcNAc = biological target: Gal6S(b1-4)GlcNAc
# Method in brief: as §1
# Gal6S(b1-4)GlcNAc6S = biological target: Gal6S(b1-4)GlcNAc6S
# Method in brief: as §1
# GalNAc(a1-3)Gal = biological target: GalNAc(a1-3)Gal
# Method in brief: as §1
# GalNAc(a1-3)GalNAc = biological target: GalNAc(a1-3)GalNAc
# Method in brief: as §1
# [20] = biological target: GalNAc(a1-3)GalNAc(a1-3)Gal(a1-4)Gal(b1-4)GlcNAc
# Method in brief: as §1
# [21] = biological target: GalNAc(a1-3)GalNAc(b1-3)Gal(a1-4)Gal(b1-4)Glc
# Method in brief: as §1
# GalNAc(b1-3)Gal = biological target: GalNAc(b1-3)Gal
# Method in brief: as §1
# [22] = biological target: GalNAc(b1-3)Gal(a1-4)Gal(b1-4)GlcNAc
# Method in brief: as §1
# [23] = biological target: GalNAc(b1-3)Gal(a1-4)Gal(b1-4)GlcNAc(b1-3)Gal(b1-4)Glc
# Method in brief: as §1
# [24] = biological target: GalNAc(b1-3)Gal(a1-6)Gal(b1-4)Glc
# Method in brief: as §1
binder,measurement,setting,value
Gal 4 (Canis lupus) (protein) MAYVPAPGYQPTYNPTLPYNKPIPGGLSVGMSVYIQGITSEHMRRFCVNFVAGAHPGSDIAFHFNPRFDGWDKVVFNSHLGGKWGSEEKKRSMPFRKGTHFELVFMVLAEHYKVVVNGNPFYEFGHRLPLQLVTHLQVEGDVELQSINFIGGTQPLGQGPGHTQQQPSSLPTMEGPPVFNPPVPFRKRLQGGLTVRRTVIIKGFVPFTSKSFVINFMVESSGDLALHINPRLTEGLVVRNSCLNGSWGSEDRKLSYNPFIPGQFFDLSIRCGMDRFKVYANGQHLFDFSHRLLALQNVDMLEINGDVTLSYIQV,glycan array binding signal (z-score),[1],-0.141
same,glycan array binding signal (z-score),[2],-0.15
same,glycan array binding signal (z-score),[3],-0.146
same,glycan array binding signal (z-score),[4],-0.146
same,glycan array binding signal (z-score),[5],-0.11
same,glycan array binding signal (z-score),[6],-0.155
same,glycan array binding signal (z-score),[7],-0.154
same,glycan array binding signal (z-score),[8],-0.148
same,glycan array binding signal (z-score),[9],-0.138
same,glycan array binding signal (z-score),[10],-0.137
same,glycan array binding signal (z-score),[11],-0.141
same,glycan array binding signal (z-score),[12],-0.155
same,glycan array binding signal (z-score),[13],-0.15
same,glycan array binding signal (z-score),[14],-0.153
same,glycan array binding signal (z-score),[15],-0.126
same,glycan array binding signal (z-score),[16],-0.146
same,glycan array binding signal (z-score),Gal(b1-6)Gal,-0.147
same,glycan array binding signal (z-score),Gal3S(b1-3)GalNAc,-0.122
same,glycan array binding signal (z-score),Gal3S(b1-3)GlcNAc,-0.111
same,glycan array binding signal (z-score),[17],-0.149
same,glycan array binding signal (z-score),Gal3S(b1-4)Glc,-0.133
same,glycan array binding signal (z-score),Gal3S(b1-4)Glc6S,0.538
same,glycan array binding signal (z-score),Gal3S(b1-4)GlcNAc,-0.15
same,glycan array binding signal (z-score),Gal3S(b1-4)GlcNAc6S,-0.102
same,glycan array binding signal (z-score),[18],-0.149
same,glycan array binding signal (z-score),[19],-0.137
same,glycan array binding signal (z-score),Gal3S4S(b1-4)GlcNAc,-0.152
same,glycan array binding signal (z-score),Gal3S6S(b1-4)GlcNAc,-0.153
same,glycan array binding signal (z-score),Gal3S6S(b1-4)GlcNAc6S,-0.153
same,glycan array binding signal (z-score),Gal4S(b1-4)GlcNAc,-0.144
same,glycan array binding signal (z-score),Gal4S6S(b1-4)GlcNAc,-0.144
same,glycan array binding signal (z-score),Gal6S(b1-3)GlcNAc,-0.135
same,glycan array binding signal (z-score),Gal6S(b1-3)GlcNAc6S,-0.133
same,glycan array binding signal (z-score),Gal6S(b1-4)Glc,-0.149
same,glycan array binding signal (z-score),Gal6S(b1-4)Glc6S,-0.148
same,glycan array binding signal (z-score),Gal6S(b1-4)GlcNAc,-0.157
same,glycan array binding signal (z-score),Gal6S(b1-4)GlcNAc6S,-0.154
same,glycan array binding signal (z-score),GalNAc(a1-3)Gal,-0.137
same,glycan array binding signal (z-score),GalNAc(a1-3)GalNAc,-0.135
same,glycan array binding signal (z-score),[20],-0.14
same,glycan array binding signal (z-score),[21],-0.139
same,glycan array binding signal (z-score),GalNAc(b1-3)Gal,-0.15
same,glycan array binding signal (z-score),[22],-0.144
same,glycan array binding signal (z-score),[23],-0.147
same,glycan array binding signal (z-score),[24],-0.154
